# From paper PMC4336329 (PLoS ONE, 2015)
# The whole screen tested about 310,000 compounds, of which about 14,000 (4.5%) showed an effect of 50% or more. The effect is printed as a negative number. The list shows a part of the results.
# Molecular target: human ether-à-go-go-related gene (hERG) potassium channel (human, UniProt Q12809)
# Assay: primary screen, population patch clamp on CHO cells stably expressing hERG
# 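Further: peak tail current of the secondary pulse compared with the same well before compound.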
# Sequence of human ether-à-go-go-related gene (hERG) potassium channel (Q12809 whole entry, looked up): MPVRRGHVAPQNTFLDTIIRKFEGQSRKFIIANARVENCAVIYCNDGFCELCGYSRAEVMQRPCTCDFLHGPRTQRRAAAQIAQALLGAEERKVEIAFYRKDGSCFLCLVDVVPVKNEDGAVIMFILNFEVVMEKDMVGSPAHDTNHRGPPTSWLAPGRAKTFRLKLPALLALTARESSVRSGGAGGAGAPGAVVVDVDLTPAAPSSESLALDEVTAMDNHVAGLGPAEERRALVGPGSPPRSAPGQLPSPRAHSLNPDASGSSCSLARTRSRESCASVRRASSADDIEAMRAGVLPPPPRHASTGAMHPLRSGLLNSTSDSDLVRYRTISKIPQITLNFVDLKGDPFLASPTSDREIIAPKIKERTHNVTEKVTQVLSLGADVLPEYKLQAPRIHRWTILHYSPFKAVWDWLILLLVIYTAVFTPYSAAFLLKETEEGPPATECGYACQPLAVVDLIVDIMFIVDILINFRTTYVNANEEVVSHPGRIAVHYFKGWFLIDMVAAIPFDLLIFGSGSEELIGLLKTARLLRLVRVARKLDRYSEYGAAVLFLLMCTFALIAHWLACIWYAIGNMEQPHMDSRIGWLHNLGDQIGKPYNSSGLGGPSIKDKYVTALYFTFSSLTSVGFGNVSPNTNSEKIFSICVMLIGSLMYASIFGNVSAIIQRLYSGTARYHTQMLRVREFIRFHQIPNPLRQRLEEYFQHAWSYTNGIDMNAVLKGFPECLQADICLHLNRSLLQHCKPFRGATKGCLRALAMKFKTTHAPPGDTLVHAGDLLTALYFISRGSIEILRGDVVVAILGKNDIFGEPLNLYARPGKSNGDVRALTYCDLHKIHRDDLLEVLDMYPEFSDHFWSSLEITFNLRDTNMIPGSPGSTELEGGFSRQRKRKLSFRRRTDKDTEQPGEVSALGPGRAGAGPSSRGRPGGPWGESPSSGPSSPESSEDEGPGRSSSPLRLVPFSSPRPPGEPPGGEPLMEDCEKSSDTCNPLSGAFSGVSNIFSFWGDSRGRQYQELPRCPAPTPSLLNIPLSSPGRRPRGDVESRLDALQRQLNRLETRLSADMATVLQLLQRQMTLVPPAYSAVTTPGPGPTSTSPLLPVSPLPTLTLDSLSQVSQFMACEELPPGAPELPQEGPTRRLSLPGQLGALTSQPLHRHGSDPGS
row,SMILES,"hERG current change (%, negative = inhibition) at 10uM"
1,Cc1nc(N2CCN(C)CC2)c2sc(=S)n(C)c2n1,-7.2%
2,O=C(c1ccccc1F)N1CCC2(CC1)OCCO2,30.8%
3,COC(=O)CCCC1=CC2=CC(=O)C(C)(OC(=O)c3cccs3)C(=O)C2=CN1CCN1CCOCC1 (stereo not shown),-0.177%
4,CCOC(=O)Cc1csc(NC(=O)c2csc3c2CCCC3)n1,-13.5%
5,COc1ccc(CNC(=O)C(NS(=O)(=O)c2cccc3nsnc23)C(C)C)cc1 (stereo not shown),-2.66%
6,C=CCNC(=O)COC(=O)c1c2c(nc3ccccc13)CCC2,8.33%
7,O=C(NC1CCCCC1)C1CCN(C(=O)c2ccc(Cl)cc2)CC1,-6.16%
8,Cc1nn(C)c(Cl)c1CN1CCCC(CO)(Cc2ccccc2)C1 (stereo not shown),-6.66%
9,COc1cc(C(=O)N/N=C/c2ccc(OC)c(CN3CCN(c4ccc(F)cc4)CC3)c2)ccc1O,-75.3%
10,O=C(N/N=C/c1ccc(O)cc1O)NC12CC3CC(CC(C3)C1)C2,7.43%
11,O=C(CCCSc1nc(-c2ccco2)cc(C(F)(F)F)n1)Nc1ccc2c(c1)OCO2,9.62%
12,CCOc1ccc2nc(NCCNC(=O)Nc3ccccc3)c(C#N)cc2c1,-9.39%
13,O=C(c1ccc(N2CCCC2=O)cc1)N1CCN(c2ccccc2Cl)CC1,-12.1%
14,Cc1onc(-c2c(F)cccc2Cl)c1C(=O)Nc1cccc(S(=O)(=O)NCc2ccco2)c1,-5.18%
15,Cc1cccc(NC(=O)c2cccc(NS(=O)(=O)c3ccc(Cl)cc3)c2)c1,-0.342%
16,COc1cc2nc(CC(C)C)n(NC(=O)c3ccccc3Br)c(=O)c2cc1OC,10.6%
17,Cc1ccsc1/C=N/NC(=O)c1ccc2ccccc2c1,38.5%
18,O=C1C2C3C=CC(C3)C2C(=O)N1c1cccc2cccnc12 (stereo not shown),-2.94%
19,CC1=C(C(=O)OCC(Br)(Br)Br)C(c2cccc([N+](=O)[O-])c2)NC(=O)N1CCCC(=O)O (stereo not shown),-3.03%
20,CCCCN(CCCC)CC(O)CN(c1cc([N+](=O)[O-])ccc1OC)S(=O)(=O)c1ccccc1 (stereo not shown),-67%
21,COc1ccc(NC(=O)O/N=C/c2ccccc2)cc1,-2.52%
22,CC(C)NC(=O)c1onc(CSc2nc3ccccc3[nH]2)c1C(=O)NC(C)C,-10.4%

row,SMILES,"hERG current change (%, negative = inhibition) at 10uM"
1,CCn1c(SCC(=O)N2CCCCC2C)nnc1-c1ccco1 (stereo not shown),-30.7%
2,CCOc1ccccc1NC(=O)COC(=O)c1ccc2ccccc2n1,24%
3,CN1CCC(O)(c2ccccc2)C(C(=O)c2ccccc2)C1 (stereo not shown),-2.34%
4,COc1ccc(N2CCN(S(=O)(=O)c3c(C(=O)N4CCOCC4)c(C)n(C)c3C)CC2)cc1,2.81%
5,CC(C)c1c(O)nc(SCC(=O)N2CCCCC2)[nH]c1=O,-28.9%
6,O=[N+]([O-])c1ccc2nc(-c3ccccc3)oc2c1,16.1%
7,Cc1ccccc1S(=O)(=O)/N=C(/c1ccccc1)N(C)C,10.7%
8,CC1CN(CCCSc2ccc(Cl)cc2)CC(C)O1.O=C(O)C(=O)O (stereo not shown),-47.9%
9,O=C(CCSCc1cccc(Cl)c1)NCCc1ccccc1,-27.2%
10,CCOC(=O)N1CCN(C(=O)Cc2ccc(-n3c(=S)[nH]c4ccccc4c3=O)cc2)CC1,8.42%
11,Cc1ccc(N2C(=O)CC(N3CCN/C3=C3\CC/C(=C\c4ccccc4)C3=O)C2=O)cc1 (stereo not shown),44.7%
12,O=c1oc(/C=C/c2ccco2)nc2sc3c(c12)CCC3,13.2%
13,CCCn1c(C)cc(-c2csc(NC(=O)CCc3nc4ccccc4c(=O)[nH]3)n2)c1C,-15.6%
14,CC(=O)Nc1ccc(Sc2ccccc2C(=O)N2CCCC2)cn1,-24.9%
15,CCC(=O)Nc1ccc(C(=O)NNC(=O)c2cccc(C)c2)cc1,5.41%
16,CC(C)CNC(=O)NC(=O)COc1c(F)c(F)cc(F)c1F,3.76%
17,C[C@@H]1C[C@H]2[C@@H]3CCC4=CC(=O)C=C[C@]4(C)[C@@]3(Cl)[C@@H](O)C[C@]2(C)[C@@]1(OC(=O)c1ccco1)C(=O)CCl,9.39%
18,CC1(C)CC(NC(=O)C23CCC(C)(C(=O)C2)C3(C)C)CC(C)(C)N1 (stereo not shown),-5.57%
19,CCN(c1ccccc1)S(=O)(=O)c1ccc(OC)c(OC)c1,-1.4%
20,O=C(O)C1C2C=CC(O2)C1C(=O)Nc1ccc2c(c1)OCCO2 (stereo not shown),20.2%
21,CN1CCN(c2ccc(NC(=O)COc3cccc4ccccc34)cc2)CC1,-65.4%
22,COc1c(F)c(F)c(C(=O)O)c(Nc2ccc(C)cc2)c1F,25.7%

row,SMILES,"hERG current change (%, negative = inhibition) at 10uM"
1,CCOC(=O)c1c(C)n(C)c2ccc(OCC(O)CN3C(=O)c4ccccc4S3(=O)=O)cc12 (stereo not shown),6.84%
2,O=C(O)/C=C/C(=O)Nc1ccc(C2(c3ccc(NC(=O)/C=C/C(=O)O)cc3)c3ccccc3-c3ccccc32)cc1,12.9%
3,O=c1[nH]c(=S)n(-c2ccc(F)cc2)c(O)c1/C=N/N1CCOCC1,17.1%
4,Cc1nc([N+](=O)[O-])cn1-c1nc2ccccn2c1[N+](=O)[O-],18.5%
5,CC(C)CCN(C(=O)c1csnn1)C(C(=O)NC1CCCCC1)c1ccc(F)cc1 (stereo not shown),-3.38%
6,CCN(C(=O)COC(=O)c1cccnc1SC)C1CCCCC1,-15.4%
7,Cc1ccccc1N1CCN(C2=NC(=O)/C(=C/c3cn[nH]c3-c3ccccc3)S2)CC1,10.8%
8,O=C(NCCCN1CCOCC1)c1ccc(Sc2ccc(Br)cc2)c([N+](=O)[O-])c1,-1.93%
9,CCOc1ccccc1CN1CCCC(C(=O)c2ccc(OC)c(OC)c2)C1 (stereo not shown),-74.2%
10,Cc1cccc(NC(=O)c2cc(NC(=O)C3CC=CCC3C(=O)O)ccc2N2CCOCC2)c1 (stereo not shown),7.28%
11,COc1ccc(N(C)S(=O)(=O)c2cccc(C(=O)Nc3nc4ccccc4[nH]3)c2)cc1,8.04%
12,COc1ccc(-c2noc(CCC(=O)NCCCN3CCC(Cc4ccccc4)CC3)n2)cc1,-80.7%
13,COc1ccc(OC)c(S(=O)(=O)N2CCC(C(=O)NC3CCCCC3)CC2)c1,-6.76%
14,CCC(=O)NC(=S)Nc1ccc(NC(=O)c2ccc([N+](=O)[O-])cc2Cl)cc1,4%
15,Cc1cc(C(=O)N2CCC(C(N)=O)CC2)c(C)o1,0.38%
16,O=S(=O)(c1cnccc1N1CCN(/N=C/c2ccc(Cl)cc2)CC1)N1CCCCC1,5.46%
17,O=C(c1cc(-c2ccc(Cl)cc2)n(-c2ccc(Cl)c(Cl)c2)n1)N1CCOCC1,-57%
18,CC(=O)N/C(=N/c1nc(C)cc(C)n1)Nc1ccc(NC(C)=O)cc1,9.5%
19,CCCNC(=O)NC(=O)COC(=O)c1cccc(NS(=O)(=O)c2ccc(F)c(F)c2)c1,-12%
20,O=C1CCCc2c1[nH]c1c(Br)cccc21,-16%
21,O=C(CSc1ccc(F)cc1)Nc1ccc(N2CCOCC2)cc1,-2.37%
22,Fc1ccc(/C=N\Nc2cccc(F)c2)cc1,12.1%

row,SMILES,"hERG current change (%, negative = inhibition) at 10uM"
1,Cc1cccc(NC(=O)N2CCN(Cc3ccccc3)CC2)c1,8.14%
2,O=C(c1ccc(NS(=O)(=O)c2cccc(F)c2)cc1)N1CCCC1,1.58%
3,Cc1cc([N+](=O)[O-])nn1CCCC(=O)Nc1cc(Cl)ccc1Cl,-17%
4,O=C(COC(=O)C12CC3CC(CC(C3)C1)C2)Nc1nccs1,22.4%
5,CCN(C(=S)Nc1ccc(OC(F)F)cc1)C1CCCCC1,-22.8%
6,CCC1(c2ccccc2)NC(=O)N(CC(=O)NNC(=O)COc2ccc(Cl)cc2C)C1=O (stereo not shown),11.7%
7,COC(=O)CSc1[nH]c2ccc(Br)cc2c1[N+](=O)[O-],16.7%
8,COC(=O)NCC(C)OC(=O)Nc1cccc(Cl)c1 (stereo not shown),-1.92%
9,CCNS(=O)(=O)c1ccc(CCC(=O)Nc2ccccc2C(=O)OC)cc1,-19.1%
10,CCOC(=O)CSc1cc(C)c(C#N)c2nc3ccccc3n12,-24.1%
11,COc1ccc(NC(=O)C2CCN(C(=O)c3ccccc3)CC2)c(OC)c1,-4%
12,O=C(COC(=O)c1cc(-c2ccncc2)nc2ccccc12)Nc1ccc2c(c1)OCO2,2.21%
13,O=C(COC(=O)c1nc(Cl)ccc1Cl)NCc1ccc(Cl)cc1,1.74%
14,COc1ccc(OC)c(N(CC(=O)NCC2CCCO2)S(=O)(=O)c2ccccc2)c1 (stereo not shown),8.03%
15,COc1ccc(-n2c(CN3CCN(c4ccccn4)CC3)nc3ccc([N+](=O)[O-])cc3c2=O)c(OC)c1,-55.5%
16,CCOC(=O)c1ccc(NC(=O)c2nc[nH]c2C(=O)N[C@H](C)c2ccccc2)cc1,12%
17,CC1CCCCN1C(=O)c1cccc(NC(=O)c2ccccc2)c1 (stereo not shown),-2.4%
18,Cc1cc(NCc2ccccn2)n2nc(C)c(-c3ccccc3)c2n1,-12%
19,CCOc1cc(S(=O)(=O)NCCN2CCOCC2)c(C)cc1C,12%
